# Test results reported in the supplement of paper PMC8728848.
# The other results are listed elsewhere or left out.
# How the values were obtained:
# Experiment in all cases: glycan array binding signal (z-score within array); higher = stronger binding
# Conditions in all cases: glycan notation: IUPAC condensed, linker removed
# [1] = target: Gal(b1-4)GlcNAc(b1-2)[Gal(b1-4)GlcNAc(b1-6)]Man(a1-6)[GlcNAc(b1-4)][Gal(b1-4)GlcNAc(b1-2)Man(a1-3)]Man(b1-4)GlcNAc(b1-4)GlcNAc
# Outline: (§1)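 Glycan array data were curated from 3228 arrays in the Consortium for Functional Glycomics database and kept only where the protein sequence was available. Glycan names were converted to IUPAC-condensed notation, and columns mapping to the same glycan were averaged. The binding signal is a within-array Z-score, averaged across arrays of the same protein sequence at different concentrations or buffers and across linkers. Negative Z-scores can be read as non-binding.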
# [2] = target: Gal(b1-4)GlcNAc(b1-2)[Gal(b1-4)GlcNAc(b1-6)]Man(a1-6)[GlcNAc(b1-4)][Gal(b1-4)GlcNAc(b1-2)[Gal(b1-4)GlcNAc(b1-4)]Man(a1-3)]Man(b1-4)GlcNAc(b1-4)[Fuc(a1-6)]GlcNAc
# Outline: as §1
# [3] = target: Gal(b1-4)GlcNAc(b1-3)Gal(b1-3)GalNAc
# Outline: as §1
# [4] = target: Gal(b1-4)GlcNAc(b1-3)Gal(b1-3)GlcNAc
# Outline: as §1
# [5] = target: Gal(b1-4)GlcNAc(b1-3)Gal(b1-4)Glc
# Outline: as §1
# [6] = target: Gal(b1-4)GlcNAc(b1-3)Gal(b1-4)GlcNAc
# Outline: as §1
# [7] = target: Gal(b1-4)GlcNAc(b1-3)Gal(b1-4)GlcNAc(b1-2)Man(a1-3)[Gal(b1-4)GlcNAc(b1-3)Gal(b1-4)GlcNAc(b1-2)Man(a1-6)]Man(b1-4)GlcNAc(b1-4)GlcNAc
# Outline: as §1
# [8] = target: Gal(b1-4)GlcNAc(b1-3)Gal(b1-4)GlcNAc(b1-2)Man(a1-3)[Gal(b1-4)GlcNAc(b1-3)Gal(b1-4)GlcNAc(b1-2)Man(a1-6)]Man(b1-4)GlcNAc(b1-4)[Fuc(a1-6)]GlcNAc
# Outline: as §1
# [9] = target: Gal(b1-4)GlcNAc(b1-3)Gal(b1-4)GlcNAc(b1-2)[Gal(b1-4)GlcNAc(b1-3)Gal(b1-4)GlcNAc(b1-6)]Man(a1-6)[Gal(b1-4)GlcNAc(b1-3)Gal(b1-4)GlcNAc(b1-2)Man(a1-3)]Man(b1-4)GlcNAc(b1-4)GlcNAc
# Outline: as §1
# [10] = target: Gal(b1-4)GlcNAc(b1-3)Gal(b1-4)GlcNAc(b1-2)[Gal(b1-4)GlcNAc(b1-3)Gal(b1-4)GlcNAc(b1-6)]Man(a1-6)[Gal(b1-4)GlcNAc(b1-3)Gal(b1-4)GlcNAc(b1-2)Man(a1-3)]Man(b1-4)GlcNAc(b1-4)[Fuc(a1-6)]GlcNAc
# Outline: as §1
# [11] = target: Gal(b1-4)GlcNAc(b1-3)Gal(b1-4)GlcNAc(b1-3)Gal(b1-4)GlcNAc
# Outline: as §1
# [12] = target: Gal(b1-4)GlcNAc(b1-3)Gal(b1-4)GlcNAc(b1-3)Gal(b1-4)GlcNAc(b1-2)Man(a1-3)[Gal(b1-4)GlcNAc(b1-3)Gal(b1-4)GlcNAc(b1-3)Gal(b1-4)GlcNAc(b1-2)Man(a1-6)]Man(b1-4)GlcNAc(b1-4)GlcNAc
# Outline: as §1
# [13] = target: Gal(b1-4)GlcNAc(b1-3)Gal(b1-4)GlcNAc(b1-3)Gal(b1-4)GlcNAc(b1-2)Man(a1-3)[Gal(b1-4)GlcNAc(b1-3)Gal(b1-4)GlcNAc(b1-3)Gal(b1-4)GlcNAc(b1-2)Man(a1-6)]Man(b1-4)GlcNAc(b1-4)[Fuc(a1-6)]GlcNAc
# Outline: as §1
# [14] = target: Gal(b1-4)GlcNAc(b1-3)Gal(b1-4)GlcNAc(b1-3)Gal(b1-4)GlcNAc(b1-2)[Gal(b1-4)GlcNAc(b1-3)Gal(b1-4)GlcNAc(b1-3)Gal(b1-4)GlcNAc(b1-6)]Man(a1-6)[Gal(b1-4)GlcNAc(b1-3)Gal(b1-4)GlcNAc(b1-3)Gal(b1-4)GlcNAc(b1-2)Man(a1-3)]Man(b1-4)GlcNAc(b1-4)[Fuc(a1-6)]GlcNAc
# Outline: as §1
# [15] = target: Gal(b1-4)GlcNAc(b1-3)Gal(b1-4)GlcNAc(b1-3)Gal(b1-4)GlcNAc(b1-3)Gal(b1-4)GlcNAc(b1-2)Man(a1-3)[Gal(b1-4)GlcNAc(b1-3)Gal(b1-4)GlcNAc(b1-3)Gal(b1-4)GlcNAc(b1-3)Gal(b1-4)GlcNAc(b1-2)Man(a1-6)]Man(b1-4)GlcNAc(b1-4)GlcNAc
# Outline: as §1
# [16] = target: Gal(b1-4)GlcNAc(b1-3)Gal(b1-4)GlcNAc(b1-3)Gal(b1-4)GlcNAc(b1-3)Gal(b1-4)GlcNAc(b1-2)Man(a1-3)[Gal(b1-4)GlcNAc(b1-3)Gal(b1-4)GlcNAc(b1-3)Gal(b1-4)GlcNAc(b1-3)Gal(b1-4)GlcNAc(b1-2)Man(a1-6)]Man(b1-4)GlcNAc(b1-4)[Fuc(a1-6)]GlcNAc
# Outline: as §1
# [17] = target: Gal(b1-4)GlcNAc(b1-3)Gal(b1-4)GlcNAc(b1-3)Gal(b1-4)GlcNAc(b1-3)Gal(b1-4)GlcNAc(b1-2)[Gal(b1-4)GlcNAc(b1-3)Gal(b1-4)GlcNAc(b1-3)Gal(b1-4)GlcNAc(b1-3)Gal(b1-4)GlcNAc(b1-6)]Man(a1-6)[Gal(b1-4)GlcNAc(b1-3)Gal(b1-4)GlcNAc(b1-3)Gal(b1-4)GlcNAc(b1-3)Gal(b1-4)GlcNAc(b1-2)Man(a1-3)]Man(b1-4)GlcNAc(b1-4)[Fuc(a1-6)]GlcNAc
# Outline: as §1
# [18] = target: Gal(b1-4)GlcNAc(b1-3)Gal(b1-4)GlcNAc(b1-3)Gal(b1-4)GlcNAc(b1-3)Gal(b1-4)GlcNAc(b1-3)Gal(b1-4)GlcNAc(b1-2)Man(a1-3)[Gal(b1-4)GlcNAc(b1-3)Gal(b1-4)GlcNAc(b1-3)Gal(b1-4)GlcNAc(b1-3)Gal(b1-4)GlcNAc(b1-3)Gal(b1-4)GlcNAc(b1-2)Man(a1-6)]Man(b1-4)GlcNAc(b1-4)GlcNAc
# Outline: as §1
# [19] = target: Gal(b1-4)GlcNAc(b1-3)Gal(b1-4)GlcNAc(b1-3)Gal(b1-4)GlcNAc(b1-3)Gal(b1-4)GlcNAc(b1-3)Gal(b1-4)GlcNAc(b1-2)Man(a1-3)[Gal(b1-4)GlcNAc(b1-3)Gal(b1-4)GlcNAc(b1-3)Gal(b1-4)GlcNAc(b1-3)Gal(b1-4)GlcNAc(b1-3)Gal(b1-4)GlcNAc(b1-2)Man(a1-6)]Man(b1-4)GlcNAc(b1-4)[Fuc(a1-6)]GlcNAc
# Outline: as §1
# [20] = target: Gal(b1-4)GlcNAc(b1-3)Gal(b1-4)GlcNAc(b1-3)Gal(b1-4)GlcNAc(b1-3)Gal(b1-4)GlcNAc(b1-3)Gal(b1-4)GlcNAc(b1-2)[Gal(b1-4)GlcNAc(b1-3)Gal(b1-4)GlcNAc(b1-3)Gal(b1-4)GlcNAc(b1-3)Gal(b1-4)GlcNAc(b1-3)Gal(b1-4)GlcNAc(b1-6)]Man(a1-6)[Gal(b1-4)GlcNAc(b1-3)Gal(b1-4)GlcNAc(b1-3)Gal(b1-4)GlcNAc(b1-3)Gal(b1-4)GlcNAc(b1-3)Gal(b1-4)GlcNAc(b1-2)Man(a1-3)]Man(b1-4)GlcNAc(b1-4)[Fuc(a1-6)]GlcNAc
# Outline: as §1
# [21] = target: Gal(b1-4)GlcNAc(b1-3)Gal(b1-4)GlcNAc(b1-3)Gal(b1-4)GlcNAc(b1-3)Gal(b1-4)GlcNAc(b1-3)Gal(b1-4)GlcNAc(b1-3)Gal(b1-4)GlcNAc(b1-2)Man(a1-3)[Gal(b1-4)GlcNAc(b1-3)Gal(b1-4)GlcNAc(b1-3)Gal(b1-4)GlcNAc(b1-3)Gal(b1-4)GlcNAc(b1-3)Gal(b1-4)GlcNAc(b1-3)Gal(b1-4)GlcNAc(b1-2)Man(a1-6)]Man(b1-4)GlcNAc(b1-4)GlcNAc
# Outline: as §1
# [22] = target: Gal(b1-4)GlcNAc(b1-3)Gal(b1-4)GlcNAc(b1-3)GalNAc
# Outline: as §1
# [23] = target: Gal(b1-4)GlcNAc(b1-3)Gal(b1-4)GlcNAc(b1-3)[Gal(b1-4)GlcNAc(b1-3)Gal(b1-4)GlcNAc(b1-6)]GalNAc
# Outline: as §1
binder,measurement,setting,value
RBMC1 (Vibrio cholerae) (protein) QQSQRVVTADNLMYLRSGFAIDAIGTTVNNLVGGPVQGTNGGVLRAPIALDQLQSVEVTSGLYNWGGYHIVAIKFTMKDGSSVLLGSTHYASNKKVETYTVPQGKRIKQINVWTGGWLVEGFQFVY,glycan array binding signal (z-score),[1],-0.233
same,glycan array binding signal (z-score),[2],-0.382
same,glycan array binding signal (z-score),[3],-0.215
same,glycan array binding signal (z-score),[4],-0.447
same,glycan array binding signal (z-score),[5],-0.275
same,glycan array binding signal (z-score),[6],-0.274
same,glycan array binding signal (z-score),[7],0.855
same,glycan array binding signal (z-score),[8],2.64
same,glycan array binding signal (z-score),[9],0.242
same,glycan array binding signal (z-score),[10],-0.38
same,glycan array binding signal (z-score),[11],-0.299
same,glycan array binding signal (z-score),[12],0.806
same,glycan array binding signal (z-score),[13],2.36
same,glycan array binding signal (z-score),[14],-0.239
same,glycan array binding signal (z-score),[15],1.31
same,glycan array binding signal (z-score),[16],1.71
same,glycan array binding signal (z-score),[17],-0.194
same,glycan array binding signal (z-score),[18],1.24
same,glycan array binding signal (z-score),[19],1.3
same,glycan array binding signal (z-score),[20],-0.067
same,glycan array binding signal (z-score),[21],0.712
same,glycan array binding signal (z-score),[22],-0.065
same,glycan array binding signal (z-score),[23],-0.199
